According to paper PMC13601526:
These are yes or no findings as the source states them, for the method shown. Binding seen in cells or lysates may run through a third protein. Some results given as binding are weak or reduced against the parent protein; the word gives no strength.

Protein sequences, listed by entry. Tags and fused reporters are not part of them. Residues count along the entry.
UniProt P42081, residues 24-329: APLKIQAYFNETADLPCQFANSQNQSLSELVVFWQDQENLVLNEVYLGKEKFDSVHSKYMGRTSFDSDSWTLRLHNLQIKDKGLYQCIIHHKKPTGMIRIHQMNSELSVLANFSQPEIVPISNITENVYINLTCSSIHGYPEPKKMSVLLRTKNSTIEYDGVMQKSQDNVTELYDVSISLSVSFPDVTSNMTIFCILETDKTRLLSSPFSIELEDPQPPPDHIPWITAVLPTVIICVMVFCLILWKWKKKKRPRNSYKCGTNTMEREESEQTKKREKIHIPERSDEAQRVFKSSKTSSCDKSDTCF

Assays:
[1] = target: CD80 (human (endogenous in MDA-MB-231)) (UniProt P33681); assay: co-IP; whole-cell lysates (400 ug) of MDA-MB-231 cells with tagged OPTN vectors; 3 ug antibody and protein A/G magnetic beads overnight at 4 °C in TBS with 0.4% NP-40; western blot; cells alone, with 3T3-L1 adipocyte coculture, or coculture plus Etomoxir
[2] = target: CD86 (human (endogenous in MDA-MB-231)) (UniProt P42081); assay: as above
[3] = target: CD80 (human (endogenous in MDA-MB-231)) (UniProt P33681); assay: co-IP; whole-cell lysates of BafA1-treated MDA-MB-231 cells, untagged OPTN and CD80/CD86; 3 ug antibody and protein A/G magnetic beads overnight at 4 °C in TBS with 0.4% NP-40; western blot; cells alone, with 3T3-L1 coculture, coculture plus Etomoxir, or coculture with PCSK9 knockdown
[4] = target: CD86 (human (endogenous in MDA-MB-231)) (UniProt P42081); assay: as above

| Substance | binding [1] | binding [2] | binding [3] | binding [4] |
| --- | --- | --- | --- | --- |
| Flag-OPTN (full-length optineurin) (from UniProt Q96CV9 1-577) | binds | binds |  |  |
| Flag-OPTN^UBD (OPTN with a deletion of 408-507aa in the UBD domain) (from UniProt Q96CV9 1-577) | no binding | no binding |  |  |
| OPTN (in MDA-MB-231 cells, untagged) (from UniProt Q96CV9 1-577) |  |  | binds | binds |
